# This is one part of the list.
# Target: T1, OsWOX13 (Oryza sativa, UniProt Q5QMM3 1-267)
# T1 sequence: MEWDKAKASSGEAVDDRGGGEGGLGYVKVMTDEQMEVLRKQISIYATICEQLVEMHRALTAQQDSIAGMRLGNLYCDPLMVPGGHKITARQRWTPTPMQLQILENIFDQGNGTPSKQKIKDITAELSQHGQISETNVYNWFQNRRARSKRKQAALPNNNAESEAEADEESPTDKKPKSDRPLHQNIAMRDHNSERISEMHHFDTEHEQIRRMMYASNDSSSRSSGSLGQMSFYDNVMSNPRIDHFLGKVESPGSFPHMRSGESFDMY
# Experiment: protein-binding microarray (RPBM); PBS, 2% BSA, 51.3 ng/ul salmon testes DNA, 50 uM zinc acetate, 200 nM TF, 25 C, 1 h; high values mean tight binding
# Conditions: protein: recombinant; tags: N-terminal polyhistidine and DsRed monomer fusion (pET32a); label: CyDye5-dUTP incorporated in the synthesized complementary strand; 3' TTTTT single-stranded linker to array surface; dsDNA, one strand shown
# In short: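 Ni–NTA purification followed expression in E. coli BL21-CodonPlus of transcription factors fused N-terminally to a polyhistidine tag and DsRed. At 200 nM in PBS with 2% BSA, salmon testes DNA and 50 µM zinc acetate, the protein was incubated for 1 h at 25 °C with a custom Agilent array that had been primer-extended with Cy5-dUTP and blocked with 2% BSA. After washing, the array was read on an Axon 4000B scanner. The binding signal is per-feature fluorescence intensity in arbitrary units.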
row,Sequence,binding signal
1,TGGTGTAATTGAATTATAGATCGGATAAGTAATTTAAGAGCGGAGTCACCTAGTGCAG,25700 fluorescence intensity (a.u.)
2,GACGGATTAATTAGGCTTAATAAATTCGTCTCGCGGTGTACGGAGTCACCTAGTGCAG,24600 fluorescence intensity (a.u.)
3,ATAAAGTGATTTAATTTTAGTTAAAGTTAAACTACTTTAACGGAGTCACCTAGTGCAG,21100 fluorescence intensity (a.u.)
4,AATCAGGATTAGTCTCATTTAATTGGGATATTACACGGTTCGGAGTCACCTAGTGCAG,7380 fluorescence intensity (a.u.)
5,GCGTAATTAGACTCAAAAGATTCGTCTCGCGATTTACATGCGGAGTCACCTAGTGCAG,36500 fluorescence intensity (a.u.)
6,AATATAATGAAATTTCACAGAGGAGGGACTGGGCTTTATACGGAGTCACCTAGTGCAG,3240 fluorescence intensity (a.u.)
7,ACAGATTTGTCACGTCCAAAATTAATGCGTACACTCTGCGCGGAGTCACCTAGTGCAG,7380 fluorescence intensity (a.u.)
8,TCTTGTCACTGAAAATTATTGACTGCTTCCCTTCTTTGTTCGGAGTCACCTAGTGCAG,3970 fluorescence intensity (a.u.)
9,GTGATTTGTCAGCTGTTAGTTGTCACACCTACTCATCAGCCGGAGTCACCTAGTGCAG,4350 fluorescence intensity (a.u.)
10,ATTAAGATGATAAGTTGTTAGATTGAAATATGCCTATCAACGGAGTCACCTAGTGCAG,3650 fluorescence intensity (a.u.)
11,CTATTTTAATTGACGTTTTGGACAATGACACGGTCTACAACGGAGTCACCTAGTGCAG,20300 fluorescence intensity (a.u.)
12,GCTGTTTGATCCATAATTTATCCGCGCGTCGTCACTCCGACGGAGTCACCTAGTGCAG,5840 fluorescence intensity (a.u.)
13,GTACTTAATTAACCTGACCTGCGTTCACTTGGGTTAAAGTCGGAGTCACCTAGTGCAG,19700 fluorescence intensity (a.u.)
14,TATCATTTAAAGTTAACTGATTGCAAGAAGCCTTAATTCTCGGAGTCACCTAGTGCAG,7520 fluorescence intensity (a.u.)
15,CGGACGTAACTAATTAATTACTACAAGCATTCCAGCAAATCGGAGTCACCTAGTGCAG,23000 fluorescence intensity (a.u.)
16,AGATCAATCACAGAAGACACGAGATTTAACGTGGAAAACCCGGAGTCACCTAGTGCAG,35200 fluorescence intensity (a.u.)
17,TGTGATTTCCTGCTTCTTCTGACTATAAGGTTTATTAGTGCGGAGTCACCTAGTGCAG,10700 fluorescence intensity (a.u.)
18,TCATTAATTTACAGCCGTTGGATCGGTAGATTACATCCCACGGAGTCACCTAGTGCAG,18800 fluorescence intensity (a.u.)
19,CTCAGTCTATTTTAGATTATATTTGTATTAGCATGCTTGACGGAGTCACCTAGTGCAG,5810 fluorescence intensity (a.u.)
20,GCTTATTTGACTGGTGTATTTCGTTTGGGCATTGAGACCACGGAGTCACCTAGTGCAG,15900 fluorescence intensity (a.u.)
21,CATGATTATATCGGTTAATGGAGGTAATTGTTTGTTGGTACGGAGTCACCTAGTGCAG,51400 fluorescence intensity (a.u.)

row,Sequence,binding signal
1,TTTGATTTAGTAGGCAACCAATGGGACTCTCAATAACATTCGGAGTCACCTAGTGCAG,7150 fluorescence intensity (a.u.)
2,ACCATTATTTAACATGTCCAATTTTAATCGTCCGTCTTATCGGAGTCACCTAGTGCAG,3360 fluorescence intensity (a.u.)
3,TTGCTAATGACTAGTAGTGATTCAGTTTAGGCTCTTGACACGGAGTCACCTAGTGCAG,6100 fluorescence intensity (a.u.)
4,AATTAATCAGGCCCTGTTACTGAATCGAACAGCCCAAACGCGGAGTCACCTAGTGCAG,9370 fluorescence intensity (a.u.)
5,AAAATTTTGATTAATCTCGTATTGGGTTCTTGTATGGAAACGGAGTCACCTAGTGCAG,29200 fluorescence intensity (a.u.)
6,AAAACCAATCAGCAACCCAATCCAACCTTCCTCCGTCCGACGGAGTCACCTAGTGCAG,14700 fluorescence intensity (a.u.)
7,ATTTAACTTTAACTTCCTCGTTTTCCGTTAGCACACTTTTCGGAGTCACCTAGTGCAG,3250 fluorescence intensity (a.u.)
8,CAACACATGATTGCCGGGCTTTCTTCCCTCTCGTCCTGAGCGGAGTCACCTAGTGCAG,32000 fluorescence intensity (a.u.)
9,AGTTGATCTGAACTTTAGACAGAATTGCAACAATCGGTGTCGGAGTCACCTAGTGCAG,7580 fluorescence intensity (a.u.)
10,TAAGATGACAAATTGTCACGGTAATAATAAAATGACTAGTCGGAGTCACCTAGTGCAG,9250 fluorescence intensity (a.u.)
11,TTAATTACTGGTTAACCAATGGTGCAATCCGCTGCCGGAGCGGAGTCACCTAGTGCAG,5630 fluorescence intensity (a.u.)
12,TTTGGGTGATTATCTGATGATGCTATGGTTTGGATACAATCGGAGTCACCTAGTGCAG,16100 fluorescence intensity (a.u.)
13,CTAAGTACAATTAGTGAATTTGACAATCAAGTGCTACTGTCGGAGTCACCTAGTGCAG,12200 fluorescence intensity (a.u.)
14,ATGGGCCACGGGCCCACGGACCATACGCATAGGATTCAACCGGAGTCACCTAGTGCAG,59500 fluorescence intensity (a.u.)
15,TCATAAATTTTGATAATTTGATCCTTTGTAAAACTATTTTCGGAGTCACCTAGTGCAG,14000 fluorescence intensity (a.u.)
16,CTAATATCAGATTTGATTAATGTAACAAGGATCGATACAACGGAGTCACCTAGTGCAG,13000 fluorescence intensity (a.u.)
17,GGGGAGACAATTACATTGAGATTTGTAAAAGTTAAGAGCACGGAGTCACCTAGTGCAG,5050 fluorescence intensity (a.u.)
18,TTGACAGCAGCATAATTAAAGCCTATTTGAACACGAATCACGGAGTCACCTAGTGCAG,10500 fluorescence intensity (a.u.)
19,TGGGTAGGGGCAGTTAATTGGGAGGGAATTCCTCCTTCACCGGAGTCACCTAGTGCAG,8890 fluorescence intensity (a.u.)
20,ATCGACTGATTGTTCGTTCCTTGTCGAAACTCCCAACTTCCGGAGTCACCTAGTGCAG,19700 fluorescence intensity (a.u.)
21,TCCTTAATTTATTTCTAGACTGTAAGAGCAAATGTGGAGGCGGAGTCACCTAGTGCAG,38900 fluorescence intensity (a.u.)

# Source: paper PMC7819943, “Rice protein-binding microarrays: a tool to detect cis-acting elements near promoter regions in rice”
